Laboratory results reported in PubChem BioAssay AID1508621 (National Center for Advancing Translational Sciences (NCATS), 2021).
This list was built around the results that the source calls inconclusive (neither active nor inactive); the mix of calls is not that of the screen. A potency beside an inconclusive call is a rough fit, not a confirmed value. Active and inactive are the calls of the source. Calls come from the whole dose curve; as a rule, active = well fitted inhibition curve with a large enough effect; inconclusive = small, poorly fitted or top-dose-only effect; inactive = no such curve, though single readings can be large or run the other way.

assay: Confirmatory qHTS for Identification of Small Molecule Inhibitors of Huntingtin Promoter Activity; settings: HEK293 HTT promoter firefly luciferase reporter, 24 h; series mostly up to 57.5 µM; note: nearly all actives have a fitted effect of over 65% in size
Outline: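 Activity normalized between vehicle control (0%) and zero RLU (-100%) from firefly luminescence (Dual-Glo). Compounds, up to 57.5 uM final, incubated 24 h at 37C on HEK293 reporter cells plated 24 h earlier.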
Potency is the fitted concentration of half-maximal effect; tags give direction and shape of the fitted curve.

Compound	Potency
Clc1ccc(N2CCN(c3ncnc4c3nc3n4CCCC3)CC2)cc1	inconclusive: 0.169 µM [inhibitor, full curve]
COc1ccc(Cl)cc1C1CC(=O)Nc2cc3c(cc21)OCCO3 (stereo not given)	inconclusive: 0.757 µM [inhibitor, full curve]
Cc1ccc(C)c(NC(=O)Cn2c(=O)oc3cc(S(=O)(=O)NCc4ccccc4)ccc32)c1	inconclusive: 23.9 µM [inhibitor, single point]
Cc1ccc(NC(=O)c2ccc(F)c(S(=O)(=O)N3CCc4ccccc4C3)c2)cc1F	inconclusive: 26.9 µM [inhibitor, single point]
CCOc1cc(CNCCSc2nnnn2-c2ccccc2)cc(Cl)c1OC	inconclusive: 26.9 µM [inhibitor, single point]
O=C(CN1CCCN(S(=O)(=O)c2ccc(Br)cc2)CC1)Nc1cccc(C(F)(F)F)c1	inconclusive: 33.8 µM [inhibitor, single point]
O=C(NCCc1csc(-c2ccc(F)cc2)n1)c1cccc(F)c1	inconclusive: 21.3 µM [inhibitor, single point]
CO[C@H]1C=CC=C(C)C(=O)NC2=CC(=O)C(NCCN(C)C)=C(C[C@@H](C)C[C@H](OC)[C@@H](O)[C@@H](C)C=C(C)[C@@H]1OC(N)=O)C2=O	inactive
O=C1CCCc2cc(S(=O)(=O)NCC3CCC(C(=O)Nc4ccc(Cl)cc4)CC3)ccc2N1 (stereo not given)	inconclusive: 13.5 µM [inhibitor, partial curve, poor fit]
COc1cc(C[C@@H](CO)[C@H](CO)Cc2ccc(O)c(OC)c2)ccc1O	inactive
